# Laboratory results taken from paper PMC4336329 (PLoS ONE, 2015).
# In all, about 310,000 compounds went through this assay and about 2,200 (0.71%) showed an effect of 50% or more. Effects have a minus sign here. The list shows a part of the results.
# Target: human ether-à-go-go-related gene (hERG) potassium channel (human, UniProt Q12809)
# Test: primary screen, population patch clamp on CHO cells stably expressing hERG
# Sequence of human ether-à-go-go-related gene (hERG) potassium channel (Q12809 whole entry, looked up): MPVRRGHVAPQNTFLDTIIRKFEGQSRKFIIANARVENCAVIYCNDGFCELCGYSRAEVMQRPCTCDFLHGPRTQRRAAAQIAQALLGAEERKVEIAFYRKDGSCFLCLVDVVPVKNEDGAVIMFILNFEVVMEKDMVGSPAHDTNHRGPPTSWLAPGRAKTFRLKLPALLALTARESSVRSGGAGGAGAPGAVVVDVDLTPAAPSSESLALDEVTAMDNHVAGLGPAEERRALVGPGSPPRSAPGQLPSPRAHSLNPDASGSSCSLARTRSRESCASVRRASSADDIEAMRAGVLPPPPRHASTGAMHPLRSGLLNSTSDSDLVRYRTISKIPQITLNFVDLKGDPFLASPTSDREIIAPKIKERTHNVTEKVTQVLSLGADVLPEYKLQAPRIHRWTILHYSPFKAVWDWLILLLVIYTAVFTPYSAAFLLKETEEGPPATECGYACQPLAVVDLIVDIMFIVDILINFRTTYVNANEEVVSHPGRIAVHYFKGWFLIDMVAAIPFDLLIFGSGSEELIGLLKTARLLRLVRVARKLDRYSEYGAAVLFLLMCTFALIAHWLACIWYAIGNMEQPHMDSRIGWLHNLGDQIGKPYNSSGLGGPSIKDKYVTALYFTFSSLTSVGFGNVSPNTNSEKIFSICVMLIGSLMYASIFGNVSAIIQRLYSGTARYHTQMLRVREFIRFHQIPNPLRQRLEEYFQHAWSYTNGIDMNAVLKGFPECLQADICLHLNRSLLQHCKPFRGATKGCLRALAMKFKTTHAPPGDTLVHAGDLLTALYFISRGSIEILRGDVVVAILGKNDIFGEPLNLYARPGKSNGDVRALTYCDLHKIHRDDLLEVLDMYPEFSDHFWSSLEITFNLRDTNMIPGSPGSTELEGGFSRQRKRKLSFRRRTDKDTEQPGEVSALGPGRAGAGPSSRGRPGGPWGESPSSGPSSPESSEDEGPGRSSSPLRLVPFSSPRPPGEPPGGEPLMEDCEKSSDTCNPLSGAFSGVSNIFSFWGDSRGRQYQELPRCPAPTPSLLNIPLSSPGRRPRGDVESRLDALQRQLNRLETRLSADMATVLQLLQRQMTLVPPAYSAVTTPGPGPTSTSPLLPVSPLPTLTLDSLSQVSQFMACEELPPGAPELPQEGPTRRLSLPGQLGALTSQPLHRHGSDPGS
row,SMILES,"hERG current change (%, negative = inhibition) at 1uM [%]"
1,Oc1ccc(-c2cnc(-c3ccc(O)cc3)nc2)cc1,11.7
2,Cc1ccc(S(=O)(=O)N/N=C(\c2ccccc2)c2cccnc2)cc1,9.69
3,CN1CCN(S(=O)(=O)c2ccc(NN)nc2)CC1,-0.494
4,CC(C(=O)NCCCn1ccnc1)(c1ccccc1)c1ccccc1.Cl,-34.6
5,O=C(Nc1cccnc1)c1cc(-c2cc(Cl)ccc2O)n[nH]1,8.56
6,Cc1ccccc1S(=O)(=O)Oc1ccc2ccc(O)cc2c1,12.1
7,CN(CCOC(=O)c1cccc(Br)c1)C(C)(C)C.Cl,-5.54
8,O=C1N/C(=N\N=C\c2cccnc2)SC1Cc1ccc(SC(F)F)cc1 (stereo not drawn),6.93
9,CCOc1ccc(NC(=O)COC(=O)CCN2C(=O)C3CC=CCC3C2=O)cc1OCC (stereo not drawn),2.34
10,CCOc1ccc(NC(=O)Nc2cnccn2)cc1,14.8
11,CCOC(=O)N1CCN(C(=O)c2c(Cl)cnn2C)CC1,2.48
12,C=CCN1CCN(C(c2ccc(Cl)cc2)c2nnnn2CCc2ccc(OC)c(OC)c2)CC1.Cl (stereo not drawn),-3.91
13,c1ccc(-c2nc3nonc3nc2-c2ccccc2)cc1,-2.48
14,CN1CCN(C(CNC(=O)c2ccc(Br)o2)c2ccc(F)cc2)CC1 (stereo not drawn),10.5
15,CCCCN(NC(C)=O)c1nc(Cl)nc(NC(C)C)n1,9.87
16,CCN(CCCNC(=O)CCCn1c(=O)[nH]c2ccccc2c1=O)c1cccc(C)c1,6.02
17,CCOC(=O)c1sc(NC(=O)CSc2nncs2)c(C(=O)OCC)c1C,4.41
18,O=C(Nc1ccccc1-c1nnn(CC(=O)N2CCN(c3ccccc3)CC2)n1)c1cccs1,12.1
19,NC(=S)NC(=O)c1ccccc1,23.7
20,CC(=O)c1cccc(NC(=O)NCc2ccc3c(c2)OCO3)c1,9.36
21,CCCCC(=O)NCCc1cc2c(C)ccc(C)c2[nH]c1=O,18.3
22,Cn1c(=O)n(CCc2ccccc2)c(=O)c2c1nc1n2CCCN1c1ccccc1,6.5
23,O=C(CN1CCc2ccccc2C1)NCc1ccco1,-5.33

row,SMILES,"hERG current change (%, negative = inhibition) at 1uM [%]"
1,COc1ccc(C2C(C(=O)Nc3ccccc3OC)=C(C)Nc3nnnn32)c(OC)c1 (stereo not drawn),7.88
2,COc1ccc(NC(=O)CN(C)C(C)C(=O)N2CCCCC2)cc1 (stereo not drawn),4.98
3,COc1ccc(OC)c(NC(=O)N2CCCC(CNS(=O)(=O)c3cccs3)C2)c1 (stereo not drawn),9.48
4,Cc1ccc(Oc2ncccc2C(=O)NCC(=O)O)cc1,15.1
5,Cc1nn(-c2ccccc2)c(C)c1/C=N/NC(=O)c1cc(C(C)(C)C)[nH]n1,2.45
6,Oc1ccc(CN2CCCc3ccccc32)c2cccnc12,-1.32
7,CCOC(=O)C1CCN(C(=O)Cn2ncc3c([nH]c4ccccc43)c2=O)CC1,9.23
8,Fc1c(F)c(F)c(SCn2cc(Br)cn2)c(F)c1F,8.39
9,COC(=O)c1sccc1NC(=O)c1csc2c1CCCC2,-0.863
10,O=C(CSc1nnc2c(n1)[nH]c1ccccc12)N1CCCCC1,5.14
11,O=C(c1ccc(CN2CCc3ccccc3C2)cc1)N1CCc2ccccc2C1,2
12,CCOC(=O)CCNC(=O)c1ccc2nc(C3CCCCC3)oc2c1,3.58
13,COc1ccc(CC(=O)OCc2cc3ccccc3[nH]c2=O)cc1,16.3
14,Cc1cc2c(NC(=O)Nc3ccccc3)cccc2nn1,11.3
15,c1ccc2c(-c3nnc(SCc4cn5ccccc5n4)o3)c[nH]c2c1,2.29
16,Cc1ccc(C)c(C(=O)COC(=O)Cn2c(C)csc2=O)c1,11.7
17,CCOC(=O)C[C@H]1c2ccc(C(F)(F)F)cc2S(=O)(=O)N1c1ccccc1,9.98
18,CCCCCC/C=C/c1ccc([C@H]2[C@H]3C=CC[C@@H](C)[C@@H]3C(=O)N2Cc2ccccc2)c(F)c1,10.4
19,O=C(O)CC(NC(=O)c1ccco1)c1ccco1 (stereo not drawn),1.01
20,COc1ccc(-c2cc(C(F)(F)F)nc(SCC(=O)N(C)Cc3cnn(C)c3C)n2)cc1OC,-10.3
21,CS(=O)(=O)Nc1ccc(C(=O)NCCc2ccccc2)cc1,-28.3
22,O=C(CCC(=O)c1cccs1)Nc1ccc(N2CCCCC2)cc1,-2.42
23,CC(=O)N/C(=C\c1ccccc1)C(=O)OCC(=O)c1c(N)n(CC(C)C)c(=O)n(C)c1=O,11.4

row,SMILES,"hERG current change (%, negative = inhibition) at 1uM [%]"
1,CCNC(=O)C/C(C)=N/NC(=O)C12CC3CC(CC(C3)C1)C2,16.6
2,O=C(COc1ncnc2ccccc12)NCCc1ccc(F)cc1,5.77
3,Cc1cccc(C(=O)Nc2cccc(Br)c2)c1[N+](=O)[O-],8.53
4,CCOC(=O)c1cnc(SC)nc1Oc1cccc(NC(=O)c2ccc(C)cc2)c1,14.3
5,O=C(Cn1cc([N+](=O)[O-])cn1)Nc1cccnc1,2.54
6,COc1cccc(C(=O)c2c[nH]c(C(=O)NCCCN3CCOCC3)c2)c1,12.3
7,O=C(CCSc1nc(-c2ccco2)cc(C(F)(F)F)n1)NCCN1CCOCC1,13.2
8,O=C1/C(=C/c2ccncc2)SC(=S)N1C1CCCCC1,13.9
9,COP(=O)(OC)c1nc(-c2cccc3ccccc23)oc1NCCc1ccccc1,11.7
10,CN1CCC(NC(=O)c2cccs2)CC1,12.4
11,COc1ccccc1NC(=O)N1CCCC1C(=O)NC1CCCCC1 (stereo not drawn),12.9
12,Cc1ccc2c(O)c(C)c(=O)[nH]c2n1,10.6
13,CC(C1CCN(Cc2cn(C)nc2-c2cccc(Cl)c2)CC1)N1CCOCC1 (stereo not drawn),4.87
14,Cc1ccc(C)c(NC(=O)C2C(c3ccccc3)C2(Cl)Cl)c1 (stereo not drawn),7.09
15,Clc1ccc(CSc2snnc2-c2ccccc2)c(Cl)c1,16.8
16,Cc1csc(SCC(=O)NCc2ccccc2Cl)n1,-3.75
17,Cc1cc(=O)oc2cc(OCc3ccc(C(=O)N4CCN(c5ccccc5)CC4)cc3)ccc12,13.3
18,CC1CN(C)C(C)CC1NCc1ccc2c(c1)OCO2 (stereo not drawn),11.1
19,Cc1ccc(Cl)cc1N1CCN(S(=O)(=O)c2ccc3c(c2)oc(=O)n3C)CC1,-9.3
20,CN(C)S(=O)(=O)c1cccc(NC(=O)C2Cc3ccccc3CN2C(=O)c2ccco2)c1 (stereo not drawn),6.88
21,COC(=O)c1ccccc1NC(=O)CN1CCC(C(=O)c2ccc3c(c2)OCCO3)CC1,15.8
22,Cc1ccccc1OCCC(=O)OCC(=O)NC1CCCCC1,-3.09
23,Cc1ccc(C)c(S(=O)(=O)Nc2ccc(C(=O)NCCCN3CCCC3=O)cc2)c1,9.62

row,SMILES,"hERG current change (%, negative = inhibition) at 1uM [%]"
1,CN=C(c1ccco1)n1c(=S)nc(-c2ccco2)n(C)c1=S,18.6
2,COc1ccccc1C(=O)NC(=S)Nc1ccc(N2CCCC2)cc1,6.05
3,Cc1ccc(-c2nc(C#N)c(NCCN3CCCCC3)o2)cc1,-29.7
4,O=c1cc(NCc2ccccc2)nc2n1CCCS2,10.4
5,COC(=O)/C(=C\Nc1ccc(Cl)c2ccccc12)c1ncc(C(F)(F)F)cc1Cl,12.5
6,Cc1cc(CN2CCC(N3CCC(C(=O)NC4CC4)CC3)CC2)cc(C)c1O,14.5
7,Cc1ccc(CNC(=O)C(Cc2ccccc2)n2cccc2)cc1 (stereo not drawn),31.1
8,CCN1/C(=C(\O)c2ccccc2)C(=O)c2ccccc2S1(=O)=O,13.6
9,COc1cc(/C=C/C(=O)N2CCN(Cc3ccccc3)CC2)cc(OC)c1OC,13
10,CCC(C)(C)NC(=O)c1cc(C(=O)OC)cc([N+](=O)[O-])c1,-0.341
11,CCN(C(=O)CN1CCOCC1)c1c(N)n(Cc2ccccc2)c(=O)[nH]c1=O,16.1
12,COc1ccc(CCNC(=O)c2ccc3c(SCC(=O)O)c4c(nc3c2)CCCC4)cc1OC,13.2
13,Cc1cccc(NC(=O)C(=O)NCc2ccccn2)c1,-4.59
14,O=C(N/C(=C\c1ccccc1)C(=O)N1CCOCC1)c1ccco1,8.97
15,CN(C)c1ccc(/C=N\Nc2ccccn2)cc1,13.6
16,CN(c1ccc(C(=O)NCc2cccs2)cc1)S(=O)(=O)c1ccccc1,12.9
17,Cc1cccc(NC(=O)CN2C(=O)CCSc3ccc(S(=O)(=O)N4CCOCC4)cc32)c1C,13.1
18,CCOC(=O)c1c(C)[nH]c(C)c1C(=O)CN1C(=O)NC(CC(C)C)C1=O (stereo not drawn),15.8
19,Cc1cc(S(=O)(=O)N2CCCC2)ccc1OCC(=O)NCc1ccccn1,11.4
20,O=C(NCCCN1CCOCC1)c1cc2nc(-c3ccco3)cc(C(F)(F)F)n2n1,11.4
21,C=CCOc1c(Cl)cc(CNc2ccc(N(C)C)cc2)cc1OC,21.4
